The source of these data is publication PMC11180213, “Development of an anti-tauopathy mucosal vaccine specifically targeting pathologic conformers” (NPJ Vaccines, 2024).

This series concerns the molecule itself. Put plainly: native gel or EMSA; 10% native PAGE of 20 ug freshly purified TauRD or heparin-treated TauRD (heparin:TauRD 1:8, 5 days, 37 °C, in PBS), incubated with thioflavin S for 15 min at room temperature; fluorescence imaging of the gel. (In general: A gel shift assay detects complexes by their altered migration in electrophoresis.)

B1: recombinant TauRD polypeptide (tau repeat domain, 2N4R-hTau […]) (domain or fragment)
chain: not shown
notes: microtubule-associated protein tau, human, 4R-tau repeat region, […]; numbers count on: 2N4R human tau; Codon-optimised synthetic DNA cloned EcoRI-XhoI into pTYB12; A few vector-derived residues may remain at the ends after intein cleavage (surmised from the cloning sites); also called 4R-TauRD; 4R-tau repeat region; source: E. coli ER2566, purified (chitin bead column, IMPACT-CN System); …
Regarding B1, the binding result is given as “binds”.
